The target in experiment [1] is T1, PP2C38-GFP (stable transgenic Arabidopsis line) (Arabidopsis thaliana) (UniProt Q9LHJ9).
T1 sequence: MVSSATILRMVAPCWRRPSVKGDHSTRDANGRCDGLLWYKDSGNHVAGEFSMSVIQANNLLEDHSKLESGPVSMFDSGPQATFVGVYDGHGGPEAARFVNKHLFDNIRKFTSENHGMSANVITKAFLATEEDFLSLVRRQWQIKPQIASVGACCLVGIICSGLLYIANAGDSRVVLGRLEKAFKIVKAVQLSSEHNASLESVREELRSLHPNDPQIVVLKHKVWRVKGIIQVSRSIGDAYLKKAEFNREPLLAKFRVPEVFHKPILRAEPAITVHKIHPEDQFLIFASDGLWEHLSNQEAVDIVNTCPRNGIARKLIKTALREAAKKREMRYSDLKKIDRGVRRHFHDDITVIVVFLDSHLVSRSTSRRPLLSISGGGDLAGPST
In words: co-IP; as a4, seedlings treated with 1 μM flg22 for 20 min.

By UniProt entry, the sequences of proteins in these tests, tags left out. Residues count along the entry.
UniProt Q9FL28, residues 24-1173: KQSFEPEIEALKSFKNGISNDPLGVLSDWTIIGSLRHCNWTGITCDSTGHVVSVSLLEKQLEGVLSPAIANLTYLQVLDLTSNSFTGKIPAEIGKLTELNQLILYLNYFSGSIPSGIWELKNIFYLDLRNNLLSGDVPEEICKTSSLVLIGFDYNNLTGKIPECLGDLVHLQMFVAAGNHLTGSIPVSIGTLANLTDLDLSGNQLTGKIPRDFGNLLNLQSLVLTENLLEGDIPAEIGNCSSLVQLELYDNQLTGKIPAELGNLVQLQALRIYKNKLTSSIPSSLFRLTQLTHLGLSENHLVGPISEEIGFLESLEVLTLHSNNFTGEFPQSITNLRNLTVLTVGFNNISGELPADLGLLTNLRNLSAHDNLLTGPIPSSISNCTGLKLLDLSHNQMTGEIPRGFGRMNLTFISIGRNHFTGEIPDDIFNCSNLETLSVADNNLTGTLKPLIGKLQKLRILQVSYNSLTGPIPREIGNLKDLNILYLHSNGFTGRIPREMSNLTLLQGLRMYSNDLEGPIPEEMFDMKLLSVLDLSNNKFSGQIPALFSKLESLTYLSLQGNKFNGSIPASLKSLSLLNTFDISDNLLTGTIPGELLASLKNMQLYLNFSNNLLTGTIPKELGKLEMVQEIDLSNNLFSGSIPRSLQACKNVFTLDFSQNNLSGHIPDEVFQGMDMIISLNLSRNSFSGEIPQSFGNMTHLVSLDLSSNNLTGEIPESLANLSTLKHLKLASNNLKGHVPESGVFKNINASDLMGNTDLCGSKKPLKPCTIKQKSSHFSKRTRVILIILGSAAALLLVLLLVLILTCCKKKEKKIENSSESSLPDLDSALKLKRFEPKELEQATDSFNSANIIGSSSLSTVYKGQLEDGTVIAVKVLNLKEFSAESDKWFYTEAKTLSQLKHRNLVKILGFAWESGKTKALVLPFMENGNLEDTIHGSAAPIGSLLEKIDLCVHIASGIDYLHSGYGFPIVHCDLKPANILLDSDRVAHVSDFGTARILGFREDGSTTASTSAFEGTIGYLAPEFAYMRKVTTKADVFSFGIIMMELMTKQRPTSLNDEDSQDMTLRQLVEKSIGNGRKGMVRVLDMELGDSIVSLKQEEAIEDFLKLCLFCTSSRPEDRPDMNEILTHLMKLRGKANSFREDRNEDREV
UniProt C0LGT6, residues 25-1031: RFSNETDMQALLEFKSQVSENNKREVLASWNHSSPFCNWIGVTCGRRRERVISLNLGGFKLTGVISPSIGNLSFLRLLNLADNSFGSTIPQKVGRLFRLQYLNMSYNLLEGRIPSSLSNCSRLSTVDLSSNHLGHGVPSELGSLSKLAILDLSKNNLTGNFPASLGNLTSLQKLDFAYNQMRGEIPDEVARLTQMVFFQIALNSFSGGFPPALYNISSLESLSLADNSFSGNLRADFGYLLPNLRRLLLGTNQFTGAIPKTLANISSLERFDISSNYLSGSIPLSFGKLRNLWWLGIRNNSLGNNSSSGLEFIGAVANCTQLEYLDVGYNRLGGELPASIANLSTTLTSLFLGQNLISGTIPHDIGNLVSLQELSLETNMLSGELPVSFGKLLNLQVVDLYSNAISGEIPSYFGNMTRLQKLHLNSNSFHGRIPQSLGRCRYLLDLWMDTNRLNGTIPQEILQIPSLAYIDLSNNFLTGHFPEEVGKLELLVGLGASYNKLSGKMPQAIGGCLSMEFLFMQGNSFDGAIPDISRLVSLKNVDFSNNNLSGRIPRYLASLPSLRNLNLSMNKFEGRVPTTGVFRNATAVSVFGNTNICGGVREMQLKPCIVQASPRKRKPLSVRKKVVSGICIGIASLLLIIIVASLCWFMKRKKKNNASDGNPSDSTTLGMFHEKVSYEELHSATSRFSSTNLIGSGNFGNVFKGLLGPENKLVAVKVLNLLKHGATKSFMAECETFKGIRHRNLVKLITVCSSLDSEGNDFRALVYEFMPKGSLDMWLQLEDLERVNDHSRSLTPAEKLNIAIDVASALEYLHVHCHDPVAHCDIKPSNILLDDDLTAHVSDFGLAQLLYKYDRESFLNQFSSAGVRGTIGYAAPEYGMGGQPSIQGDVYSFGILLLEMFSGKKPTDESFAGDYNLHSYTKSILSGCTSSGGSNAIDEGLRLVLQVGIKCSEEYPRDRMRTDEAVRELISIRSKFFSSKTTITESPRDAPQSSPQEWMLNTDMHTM

In experiment [2] the target is T1, PP2C38-GFP (stable transgenic Arabidopsis line) (Arabidopsis thaliana). Briefly: co-IP; stable transgenic Arabidopsis seedlings (T3) expressing PP2C38-GFP, mock-treated; PP2C38-GFP immunoprecipitates, native FLS2 detected with α-FLS2.
The target in experiment [3] is T2, BIK1-FLAG (Arabidopsis thaliana) (UniProt O48814).
T2 sequence: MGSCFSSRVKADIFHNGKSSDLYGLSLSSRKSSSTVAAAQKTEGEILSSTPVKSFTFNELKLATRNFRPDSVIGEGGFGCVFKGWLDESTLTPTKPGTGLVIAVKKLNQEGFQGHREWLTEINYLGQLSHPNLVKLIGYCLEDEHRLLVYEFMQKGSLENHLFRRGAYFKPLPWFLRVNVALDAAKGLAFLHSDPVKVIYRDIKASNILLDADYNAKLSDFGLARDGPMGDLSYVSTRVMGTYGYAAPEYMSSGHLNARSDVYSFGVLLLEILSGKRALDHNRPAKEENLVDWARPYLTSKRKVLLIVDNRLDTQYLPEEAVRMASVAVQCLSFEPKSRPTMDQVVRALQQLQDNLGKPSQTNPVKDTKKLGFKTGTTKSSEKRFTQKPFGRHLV
In words: co-IP; as a6, the samples from protoplasts treated with 1 μM flg22 for 30 min.

Experiment [4] has as its target T2, BIK1-FLAG (Arabidopsis thaliana). In words: co-IP; Arabidopsis Col-0 protoplasts co-transfected, treated or not with 1 μM elf18 or flg22 for 15-30 min; α-FLAG immunoprecipitation, immunoblot.
Experiment [5] deals with T3, BIK1-GFP (Arabidopsis thaliana) (UniProt O48814).
T3 sequence: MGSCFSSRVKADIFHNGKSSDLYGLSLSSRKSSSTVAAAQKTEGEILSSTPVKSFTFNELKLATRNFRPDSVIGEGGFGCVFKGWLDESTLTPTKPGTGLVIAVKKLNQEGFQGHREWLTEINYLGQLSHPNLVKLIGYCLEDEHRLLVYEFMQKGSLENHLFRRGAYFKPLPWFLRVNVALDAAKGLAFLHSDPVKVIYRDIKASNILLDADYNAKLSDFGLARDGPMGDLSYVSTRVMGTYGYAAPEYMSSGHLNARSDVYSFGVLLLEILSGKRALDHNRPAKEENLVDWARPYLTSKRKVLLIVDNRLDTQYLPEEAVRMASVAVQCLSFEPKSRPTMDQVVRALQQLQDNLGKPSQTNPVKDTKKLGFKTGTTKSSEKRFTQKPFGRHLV
In words: co-IP; as a2, the samples from N. benthamiana leaves treated with 100 nM flg22 for 20 min.

Experiment [6] deals with FLS2-GFP (Arabidopsis thaliana) (UniProt Q9FL28). Described as above.
Experiment [7] deals with T4, BAK1-GFP (Arabidopsis thaliana) (UniProt Q94F62).
T4 sequence: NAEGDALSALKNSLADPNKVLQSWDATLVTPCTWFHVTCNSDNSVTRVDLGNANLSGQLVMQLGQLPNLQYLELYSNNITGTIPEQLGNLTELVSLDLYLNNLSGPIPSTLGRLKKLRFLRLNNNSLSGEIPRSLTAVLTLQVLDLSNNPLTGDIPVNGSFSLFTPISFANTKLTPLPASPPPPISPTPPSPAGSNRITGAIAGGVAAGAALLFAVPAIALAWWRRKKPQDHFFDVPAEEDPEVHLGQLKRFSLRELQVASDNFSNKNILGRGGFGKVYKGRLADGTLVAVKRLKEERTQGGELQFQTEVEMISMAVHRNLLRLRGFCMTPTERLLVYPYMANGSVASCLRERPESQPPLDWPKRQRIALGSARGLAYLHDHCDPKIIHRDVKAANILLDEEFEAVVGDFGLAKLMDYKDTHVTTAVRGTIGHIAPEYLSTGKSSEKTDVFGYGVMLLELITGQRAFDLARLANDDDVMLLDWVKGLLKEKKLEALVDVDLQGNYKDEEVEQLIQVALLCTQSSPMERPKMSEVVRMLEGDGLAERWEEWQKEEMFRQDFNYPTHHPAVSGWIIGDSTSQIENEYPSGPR
Briefly: co-IP; proteins transiently co-expressed in N. benthamiana leaves, treated or not with 100 nM elf18 or flg22 for 20 min; GFP-Trap immunoprecipitation at 4°C, immunoblot.

For experiment [8], the target named is T3, BIK1-GFP (Arabidopsis thaliana). The experiment is described as above.
The target in experiment [9] is FLS2-GFP (Arabidopsis thaliana) (UniProt Q9FL28). The description is as above.
For experiment [10], the target named is full-length EFR-GFP (Arabidopsis thaliana) (UniProt C0LGT6). The experiment is described as above.
Experiment [11] deals with T5, PP2C38-FLAG (expressed in Arabidopsis protoplasts) (Arabidopsis thaliana) (UniProt Q9LHJ9).
T5 sequence: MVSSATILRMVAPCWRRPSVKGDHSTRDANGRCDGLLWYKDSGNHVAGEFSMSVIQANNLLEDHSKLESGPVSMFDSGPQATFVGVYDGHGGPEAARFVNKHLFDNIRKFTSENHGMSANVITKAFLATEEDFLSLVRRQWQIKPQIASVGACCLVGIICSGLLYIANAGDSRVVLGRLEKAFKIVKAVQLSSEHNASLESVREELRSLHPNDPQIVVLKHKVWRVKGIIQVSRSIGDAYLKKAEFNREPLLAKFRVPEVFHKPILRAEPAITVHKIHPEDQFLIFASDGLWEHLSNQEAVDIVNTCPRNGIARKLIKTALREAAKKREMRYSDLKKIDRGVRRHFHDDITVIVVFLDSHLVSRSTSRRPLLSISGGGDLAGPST
Briefly: co-IP; Arabidopsis Col-0 protoplasts co-transfected, treated or not with 1 μM elf18 or flg22 for 15-30 min; α-FLAG immunoprecipitation, immunoblot. For orientation: Immunoblotting shows a protein as a band on a membrane.

These are yes or no findings as the source states them, for the method shown. Binding seen in cells or lysates may run through a third protein. Some results given as binding are weak or reduced against the parent protein; the word gives no strength. Where a sequence is shown, tags or fusion partners need not be part of it.

In the case of “endogenous FLS2 (native FLS2 protein) (from UniProt Q9FL28 24-1173) (receptor)”, the binding entry is listed as “no binding (condition: after 1 μM flg22 for 20 min)” in experiment [1] and “binds” in experiment [2].

B1: PP2C38-HA (enzyme, UniProt Q9LHJ9 1-385)
chain: MVSSATILRMVAPCWRRPSVKGDHSTRDANGRCDGLLWYKDSGNHVAGEFSMSVIQANNLLEDHSKLESGPVSMFDSGPQATFVGVYDGHGGPEAARFVNKHLFDNIRKFTSENHGMSANVITKAFLATEEDFLSLVRRQWQIKPQIASVGACCLVGIICSGLLYIANAGDSRVVLGRLEKAFKIVKAVQLSSEHNASLESVREELRSLHPNDPQIVVLKHKVWRVKGIIQVSRSIGDAYLKKAEFNREPLLAKFRVPEVFHKPILRAEPAITVHKIHPEDQFLIFASDGLWEHLSNQEAVDIVNTCPRNGIARKLIKTALREAAKKREMRYSDLKKIDRGVRRHFHDDITVIVVFLDSHLVSRSTSRRPLLSISGGGDLAGPST
As to B1, the figures for the binding entry in [3] and in experiment [4] were “no binding (condition: after 1 μM flg22 for 30 min)” and “binds”, respectively.

B2: PP2C38-FLAG (expressed in N. benthamiana) (enzyme, UniProt Q9LHJ9 1-385)
chain: MVSSATILRMVAPCWRRPSVKGDHSTRDANGRCDGLLWYKDSGNHVAGEFSMSVIQANNLLEDHSKLESGPVSMFDSGPQATFVGVYDGHGGPEAARFVNKHLFDNIRKFTSENHGMSANVITKAFLATEEDFLSLVRRQWQIKPQIASVGACCLVGIICSGLLYIANAGDSRVVLGRLEKAFKIVKAVQLSSEHNASLESVREELRSLHPNDPQIVVLKHKVWRVKGIIQVSRSIGDAYLKKAEFNREPLLAKFRVPEVFHKPILRAEPAITVHKIHPEDQFLIFASDGLWEHLSNQEAVDIVNTCPRNGIARKLIKTALREAAKKREMRYSDLKKIDRGVRRHFHDDITVIVVFLDSHLVSRSTSRRPLLSISGGGDLAGPST
For the molecule B2, the binding result in experiment [5] is “no binding (condition: after 100 nM flg22 for 20 min)”; in experiment [6], “no binding (condition: after 100 nM flg22 for 20 min)”; in experiment [7], “no binding”; in experiment [8], “binds”; in experiment [9], “binds”; in experiment [10], “binds”.

B3: PP2C38^S77A-HA (enzyme, UniProt Q9LHJ9 1-385)
chain: MVSSATILRMVAPCWRRPSVKGDHSTRDANGRCDGLLWYKDSGNHVAGEFSMSVIQANNLLEDHSKLESGPVSMFDAGPQATFVGVYDGHGGPEAARFVNKHLFDNIRKFTSENHGMSANVITKAFLATEEDFLSLVRRQWQIKPQIASVGACCLVGIICSGLLYIANAGDSRVVLGRLEKAFKIVKAVQLSSEHNASLESVREELRSLHPNDPQIVVLKHKVWRVKGIIQVSRSIGDAYLKKAEFNREPLLAKFRVPEVFHKPILRAEPAITVHKIHPEDQFLIFASDGLWEHLSNQEAVDIVNTCPRNGIARKLIKTALREAAKKREMRYSDLKKIDRGVRRHFHDDITVIVVFLDSHLVSRSTSRRPLLSISGGGDLAGPST
As to B3, the binding result in experiment [4] was “binds”.

B4: endogenous BAK1 (receptor, UniProt Q94F62 26-615)
chain: NAEGDALSALKNSLADPNKVLQSWDATLVTPCTWFHVTCNSDNSVTRVDLGNANLSGQLVMQLGQLPNLQYLELYSNNITGTIPEQLGNLTELVSLDLYLNNLSGPIPSTLGRLKKLRFLRLNNNSLSGEIPRSLTAVLTLQVLDLSNNPLTGDIPVNGSFSLFTPISFANTKLTPLPASPPPPISPTPPSPAGSNRITGAIAGGVAAGAALLFAVPAIALAWWRRKKPQDHFFDVPAEEDPEVHLGQLKRFSLRELQVASDNFSNKNILGRGGFGKVYKGRLADGTLVAVKRLKEERTQGGELQFQTEVEMISMAVHRNLLRLRGFCMTPTERLLVYPYMANGSVASCLRERPESQPPLDWPKRQRIALGSARGLAYLHDHCDPKIIHRDVKAANILLDEEFEAVVGDFGLAKLMDYKDTHVTTAVRGTIGHIAPEYLSTGKSSEKTDVFGYGVMLLELITGQRAFDLARLANDDDVMLLDWVKGLLKEKKLEALVDVDLQGNYKDEEVEQLIQVALLCTQSSPMERPKMSEVVRMLEGDGLAERWEEWQKEEMFRQDFNYPTHHPAVSGWIIGDSTSQIENEYPSGPR
In the case of B4, in experiment [11], the binding result is given as “no binding”.

The values above are taken from article PMC4975489, “The Arabidopsis Protein Phosphatase PP2C38 Negatively Regulates the Central Immune Kinase BIK1” (PLoS Pathogens, 2016).
